Source: paper PMC12136788
The list shows a part of the results.

T1: UNK ZnF1-6 (called full-length) (human, UniProt Q9C0B0 30-357)
T1 sequence: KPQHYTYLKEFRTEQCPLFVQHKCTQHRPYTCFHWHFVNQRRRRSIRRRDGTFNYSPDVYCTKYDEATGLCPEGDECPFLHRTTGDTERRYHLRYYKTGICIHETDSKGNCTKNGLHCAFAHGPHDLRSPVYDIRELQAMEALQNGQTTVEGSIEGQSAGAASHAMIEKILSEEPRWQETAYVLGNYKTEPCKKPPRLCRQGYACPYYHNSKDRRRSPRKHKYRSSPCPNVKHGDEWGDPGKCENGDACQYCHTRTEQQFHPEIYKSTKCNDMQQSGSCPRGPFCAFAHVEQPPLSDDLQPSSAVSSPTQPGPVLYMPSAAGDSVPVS

B1: chr10:87746157:87746259:+|3pUTR|ENSG00000198682|unk|FALSE|unique (ssRNA)
RNA: GGGAGUUCUACAGUCCGACGAUCAACUGAAGACCAAAUCUUAGCAGGUAAAAGCAAUAUUCUUAUACAUUUCAUAAUAAAAUUAGCUCUAUGUAUUUUCUACUGCACCUGAGCAGGCAGGUCCCAGAUUUCUUAAGGCUUUGUCAACAGAGGAUUGAGCAUCA
B2: ENSG00000112936:stop:overlap|stop_codon|ENSG00000112936|stop_codon|NA|stop_codon (ssRNA)
RNA: GGGAGUUCUACAGUCCGACGAUCGAUGCAGAGGGCAGAGCAUCUCUGUCACCAGCAUAAGGCCUUGUGCUGCGGAAACCCAGUAGGCUCCUGGAGGCCCUGGUCAGCUUGCUUGGAAUCCAGCAGGCAGCUGGGGCUGAGUGACAACAGAGGAUUGAGCAUCA
B3: chr7:6690371:6690472:-|3pUTR|ENSG00000164631|msi1|total|mutant (ssRNA)
RNA: GGGAGUUCUACAGUCCGACGAUCUGAAAAAAAAAAAAGAAACCGAAGAUUCCUGCUGUGAAUAAACAUACUUCUUGUGUAAACCGAAACUGUAAAGUCAUCAGGACCGCCCGUUAAGUCGGUAACCUUAAACUCAUGUAAGCACAACAGAGGAUUGAGCAUCA
B4: chr6:89631235:89631336:+|3pUTR|ENSG00000135299|msi1|total|mutant (ssRNA)
RNA: GGGAGUUCUACAGUCCGACGAUCUGAAGUUUGAAAGCUCAGAUUAAGCAAGCCAUGCCAAGAAACUGGACGAUGUGUAAGCCCCGACUCUAAAAUUCAAGAUGUGUGAAAUAAUAUAAGUCAAAAGCAAGAAAAACGUAAUCCCAACAGAGGAUUGAGCAUCA
B5: chr16:11872726:11872856:-|3pUTR|ENSG00000103342|msi1_unk|FALSE|overlapping (ssRNA)
RNA: GGGAGUUCUACAGUCCGACGAUCACAUAAUUGCCUACAAUAAUGAAAACCUACAGGAAUUUUUUUAUUUUUCAUUUUCCCCUUAGGCAUAUUUAGUAUUUUUCCCCCAGGCAGAUCAUUCUGAGUGUGCGAGUGUGUGUGCACCAACAGAGGAUUGAGCAUCA
B6: chr1:186359875:186359976:-|CDS|ENSG00000047410|msi1_unk|total|mutant (ssRNA)
RNA: GGGAGUUCUACAGUCCGACGAUCGGAAACUCAGGAUCAGUUGCUUUUGGAGAAACCCGAGAACAAAAGAAUUAAUAAGUACCCCGAUGAAACCGUGAAAGAAGUGGAAGCCAAAGCACCAAUUUUGAAACGCCAGCGUGAGGACAACAGAGGAUUGAGCAUCA
B7: chr7:152122106:152122213:+|3pUTR|ENSG00000178234|unk|total|mutant (ssRNA)
RNA: GGGAGUUCUACAGUCCGACGAUCAGUGGUUUUUAUCUGAUCAGGAACUUGUCAUGAUUUCCUUUCUCCGACUUCACCGGAGACCGUGCUUUAAAAAAAAAAAAAACUUCUAUUAUUUGUUCCGUAUGUUGUAAGCCGAUCAUUCAACAGAGGAUUGAGCAUCA
B8: chr1:43623430:43623515:+|3pUTR|ENSG00000142949|msi1_unk|total|mutant (ssRNA)
RNA: GGGAGUUCUACAGUCCGACGAUCGGCGGGGAAGGGUGCACCGCUGUUUCCGCUGAGGGACGUGGUGCCGACGUCCCCAAACCCCGCCCGGCUAAGUCAAGAUCAACAUUCCAGGGUUGGUAAUGUUGGAUGAUGAAACAUUCACAACAGAGGAUUGAGCAUCA
B9: chr12:104760787:104760888:+|3pUTR|ENSG00000171310|unk|FALSE|unique (ssRNA)
RNA: GGGAGUUCUACAGUCCGACGAUCUUCUUUUCUAAUGGCAUUGAAACUUUAAAAAAAAUGGAUUCAACUGUUUUUGCAGAAUGUAGAAAGUAUUCUGUGUCCUUGGUUAAAGAAAUCCACUUGUGAAGUGUGCCUGGAAAAUGACAACAGAGGAUUGAGCAUCA
B10: ENSG00000006125:stop:overlap|stop_codon|ENSG00000006125|stop_codon|NA|stop_codon (ssRNA)
RNA: GGGAGUUCUACAGUCCGACGAUCCAUCAGAAACACAGGAGCUAGUCCAGCAGGUCUUGAGUUUGGCAACACAGCUAAAGAAGUAGUCUUGUCUGAGAAGCCACUGAUCUCUGAGGAGACGGACCUUAUUGAGCCAACUCUGCUCAACAGAGGAUUGAGCAUCA
B11: chr5:1253166:1253831:-|three_prime_utr|ENSG00000164362|control|control|control (ssRNA)
RNA: GGGAGUUCUACAGUCCGACGAUCCUCGGCUCCACCCCAGGGCCAGCUUUUCCUCACCAGGAGCCCGGCUUCCACUCCCCACAUAGGAAUAGUCCAUCCCCAGAUUCGCCAUUGUUCACCCCUCGCCCUGCCCUCCUUUGCCUUCAACAGAGGAUUGAGCAUCA
B12: chr1:155263244:155263345:-|CDS|ENSG00000176444|unk|FALSE|unique (ssRNA)
RNA: GGGAGUUCUACAGUCCGACGAUCGUAUCUGACCUCAGAGGCAGAGGAACACCACCAGCUCUUCGAUCUGAUUGAAAGCAUGCUAGAGUAUGAACCAGCUAAGCGGCUGACCUUGGGUGAAGCCCUUCAGCAUCCUUUCUUCGCCAACAGAGGAUUGAGCAUCA
B13: chr1:16124655:16124788:-|3pUTR|ENSG00000142627|msi1|FALSE|unique (ssRNA)
RNA: GGGAGUUCUACAGUCCGACGAUCAGACUGUGAACUUGACUGGGUGAGACCCAAAGCGGUCCCUGUCCCUCUAGUGCCUUCUUUAGACCCUCGGGCCCCAUCCUCAUCCCUGACUGGCCAAACCCUUGCUUUCCUGGGCCUUUGCAACAGAGGAUUGAGCAUCA
B14: chr1:192811693:192811799:+|3pUTR|ENSG00000116741|unk|FALSE|unique (ssRNA)
RNA: GGGAGUUCUACAGUCCGACGAUCCUUGAAUUCAGCCUGGGUGUUCAGGAAACAUCACUCAGAACUAUUGAUUCAAAGUUGGGUAGUGAAUCAGGAAGCCAGUAACUGACUAGGAGAAGCUGGUAUCAGAACAGCUUCCCUCACCAACAGAGGAUUGAGCAUCA
B15: chr1:150144965:150145066:+|3pUTR|ENSG00000136631|msi1|FALSE|unique (ssRNA)
RNA: GGGAGUUCUACAGUCCGACGAUCAGACUCCCAGAGUUGUCCUAACAAUAAGUCUGAGCCCAUCUCAACCCACUUUUCUCCGGUAGUCUUUAUGUAUCUGUUAGCACAAUCACUUCAGUUACUGAUGAAUUUUGUUGGGAUCUGCAACAGAGGAUUGAGCAUCA
B16: chr14:92163265:92163366:+|3pUTR|ENSG00000165934|msi1|total|mutant (ssRNA)
RNA: GGGAGUUCUACAGUCCGACGAUCUAAUAUCAGACUCGAAUUACUAUUUCAUUCUAUUUCAAAUGCUUAUAAAGCUACUAUUGCCGAUUACCGUGUUAAUGCAAAGUUUACAGACUUUUGAUAUGGAAAACCAGAUAAAACAAUCAACAGAGGAUUGAGCAUCA
B17: chr1:193096648:193096749:-|CDS|ENSG00000023572|msi1_unk|FALSE|overlapping (ssRNA)
RNA: GGGAGUUCUACAGUCCGACGAUCCAACAGGUUCCAAGAAUAUUUGUCAAUGGUACUUUUAUUGGAGGUGCAACUGACACUCAUAGGCUUCACAAAGAAGGAAAAUUGCUCCCACUAGUUCAUCAGUGUUAUUUAAAAAAAAGUCAACAGAGGAUUGAGCAUCA
B18: ENSG00000136451:be:win_1901|3pUTR|ENSG00000136451|bound_else_gene|NA|bound_elsewhere_windowed (ssRNA)
RNA: GGGAGUUCUACAGUCCGACGAUCUCCCAAGGAAUCACUUUAUUGUAAACACUAGCAGAACUCUUCUCCCUAUACAAGGUGGAUGGCUGAUUUUAACCUGAAAUUUUAAAUCCACAGAUUGAGAGCUAGUGUAGAAUUGUCUGUCAACAGAGGAUUGAGCAUCA
B19: ENSG00000186575:stop:overlap|stop_codon|ENSG00000186575|stop_codon|NA|stop_codon (ssRNA)
RNA: GGGAGUUCUACAGUCCGACGAUCCCAUUAAAAAGCUCACCUUGCAGAGCGCCAAGUCCCGAGUGGCCUUCUUUGAAGAGCUCUAGCAGGUGACCCAGCCACCCCAGGACCUGCCACUUCUCCUGCUACCGGGACCGCGGGAUGCAACAGAGGAUUGAGCAUCA
B20: chrX:80717640:80717741:-|CDS|ENSG00000165288|msi1|FALSE|unique (ssRNA)
RNA: GGGAGUUCUACAGUCCGACGAUCCUGAGAAGUCCAAACAUGGACAUAUCUUCUUCCCCAAACAUCAGGCUUCGAAGACAUAGUAGUCAAAUUGAAGGUGUUAGACAAAUGCAUAACAAUGCUCCUCGGAGCCAGAUGGCCACUCAACAGAGGAUUGAGCAUCA
B21: chr2:171482635:171482736:+|3pUTR|ENSG00000115827|unk|FALSE|unique (ssRNA)
RNA: GGGAGUUCUACAGUCCGACGAUCCAAGAGUGUUUCAGAAUAGGAUGUCUUAAGACUUCAGUCAUGUCAGAGAUUUUUUUUUUUAGGUGAUUAUUGAGUUUCUCCUUCUCCUUUAAGUCAUCACCUUCCUUUUAUGAAAUGAUACAACAGAGGAUUGAGCAUCA
B22: chr3:58425360:58425463:+|3pUTR|ENSG00000168297|unk|total|mutant (ssRNA)
RNA: GGGAGUUCUACAGUCCGACGAUCAGACAGCUCCCCGAAACAUUCCUCUUACAGUUCAUUUCUCUAAAGCAUUUUCUGAUUCUCCGAUAACUCCAAUUUUUGCUACCUUUAUCUCCGACAUUAACACUACCGCCCAAAGCACCGCAACAGAGGAUUGAGCAUCA

Biological target: T1, UNK ZnF1-6 (called full-length)
Test: nsRBNS (natural sequence RNA bind-n-seq); RBNS binding buffer (assumed for nsRBNS): 25 mM Tris pH 7.5, 150 mM KCl, 3 mM MgCl2, 0.01% Triton X-100, 500 ug/ml BSA, 20 U/ml SUPERase-In, 4 C; UNK is unkempt and MSI1 is Musashi-1; names of the RNAs are library labels; protein concentration not given here; high values mean tight binding

Binder	binding signal [enrichment R]
B1	18.7
B2	0.329
B3	0.374
B4	0.4
B5	11.3
B6	0.979
B7	0.949
B8	0.368
B9	0.431
B10	0.545
B11	2.26
B12	0.586
B13	1.36
B14	0.394
B15	0.566
B16	0.435
B17	5.63
B18	0.417
B19	0.727
B20	0.592
B21	1.03
B22	0.66
